Results published in patent US8569472B2, “Efficient cell culture system for hepatitis C virus genotype 6A” (priority 2007, dated 2013).

Tested on: Huh7.5 cells
Assay: Cell viability, CellTiter 96 AQueous One Solution Cell Proliferation Assay
Format: cell-based, human
Settings: 500 IU/mL interferon-α2b, 20 μM ribavirin or 50 μM amantadine

Compound | cytotoxic effect
NC(=O)c1ncn([C@@H]2O[C@H](CO)[C@@H](O)[C@H]2O)n1 [ribavirin] | No significant cytotoxic effect
NC12CC3CC(CC(C3)C1)C2 [amantadine] | No significant cytotoxic effect
